# Where “and” joins values, the source holds several entries; their conditions need not be identical. Equal entries are not always repeated. Hit rate of the full screen: of about 390,000 compounds, about 17,000 (4.4%) were called active. Inconclusive results, whose numbers are uncertain, are shown with a selection of clear calls. Calls follow the shape of the dose curve; as a rule, active = well fitted inhibition curve with a large enough effect; inconclusive = small, poorly fitted or top-dose-only effect; inactive = no such curve, though single readings can be large or run the other way. Where the call is inconclusive, the potency comes from a doubtful curve fit.
# Biological target: Lysine-specific demethylase 4A (Homo sapiens) (UniProt O75164)
# UniProt O75164, sequence (O75164 whole entry, looked up, the tested form may be a part): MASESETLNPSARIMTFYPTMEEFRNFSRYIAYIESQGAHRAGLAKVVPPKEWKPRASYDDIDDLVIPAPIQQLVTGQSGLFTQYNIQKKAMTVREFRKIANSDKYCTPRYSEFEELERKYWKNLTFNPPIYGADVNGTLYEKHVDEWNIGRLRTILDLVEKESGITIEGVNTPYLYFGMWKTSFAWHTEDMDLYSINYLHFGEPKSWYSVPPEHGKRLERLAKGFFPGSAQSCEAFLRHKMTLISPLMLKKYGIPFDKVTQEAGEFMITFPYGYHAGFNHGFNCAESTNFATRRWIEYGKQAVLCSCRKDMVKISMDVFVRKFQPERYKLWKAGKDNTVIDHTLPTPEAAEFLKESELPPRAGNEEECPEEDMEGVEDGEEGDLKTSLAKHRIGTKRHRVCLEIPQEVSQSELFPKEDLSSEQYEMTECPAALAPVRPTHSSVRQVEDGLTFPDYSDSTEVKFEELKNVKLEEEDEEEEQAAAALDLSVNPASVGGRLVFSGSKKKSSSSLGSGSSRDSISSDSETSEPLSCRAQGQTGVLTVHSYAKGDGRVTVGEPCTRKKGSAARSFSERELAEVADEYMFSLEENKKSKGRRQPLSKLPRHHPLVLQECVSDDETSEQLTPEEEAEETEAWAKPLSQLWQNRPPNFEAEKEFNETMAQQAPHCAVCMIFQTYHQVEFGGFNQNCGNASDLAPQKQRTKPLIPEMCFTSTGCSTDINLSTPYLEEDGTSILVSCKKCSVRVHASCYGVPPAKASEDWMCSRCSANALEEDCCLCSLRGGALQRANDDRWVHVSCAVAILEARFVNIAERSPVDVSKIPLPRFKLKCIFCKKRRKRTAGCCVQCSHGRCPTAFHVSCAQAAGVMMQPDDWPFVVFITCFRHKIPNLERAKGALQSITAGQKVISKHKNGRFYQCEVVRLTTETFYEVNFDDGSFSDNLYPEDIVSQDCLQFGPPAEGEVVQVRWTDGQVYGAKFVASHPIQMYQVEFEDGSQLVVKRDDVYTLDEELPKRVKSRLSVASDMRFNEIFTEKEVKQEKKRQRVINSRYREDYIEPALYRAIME
# Assay: qHTS Assay for Inhibitors of JMJD2A-Tudor Domain; also: nearly all actives have a fitted effect of over 50% in size
# Settings: AlphaScreen JMJD2A-Tudor / H3K4me3 peptide binding; activity change, negative = inhibition: at 114 µM (top of the series)
# % is scaled to controls: 0 for no effect and ±100 for the full control effect; potency is read from the fitted curve at half-maximal effect; tags tell the direction and shape of the fitted curve.
SMILES,Potency,"activity change, negative = inhibition"
Cc1ccc(F)cc1NC(=O)COC(=O)COc1ccc(C#N)cc1,inactive,
Cc1ccc(/C=C/C(=O)N2CCN(S(=O)(=O)c3ccc(C)c(C)c3)CC2)o1,active: 44.7 µM,
CCN1CCN(c2ccc(Nc3ccnc4ccccc34)cc2)CC1,"inconclusive: 44.7 µM [inhibitor, partial curve]",
CCOc1ccc(-c2nc(SCC(=O)NC3CCCC3)c(-c3ccccc3)[nH]2)cc1OC,"inconclusive: 50.1 µM [inhibitor, partial curve]",
Cn1c2ccccc2c(=O)c2c(=O)n(C3CCCCCC3)c(C3CCCCC3)nc21,"inconclusive: 39.8 µM [inhibitor, single point]",
COc1cccc(-c2nc(SCC(=O)NC3CCCC3)c(-c3ccccc3)[nH]2)c1,"inconclusive: 35.5 µM [inhibitor, partial curve]",
Cc1ccc(C)c(C(=O)COC(=O)c2cccc(N3C(=O)c4c(C)nc5ccccc5c4C3=O)c2)c1,"inconclusive: 10 µM [inhibitor, full curve, poor fit]",
COc1ccc(CCCc2nnc(SCC(=O)Nc3ccccc3F)o2)cc1,inactive,
Cn1c(/C(C#N)=N/O)nc2ccccc21,"inconclusive: 31.6 µM [inhibitor, full curve]",
O=C(/C=C/c1ccccc1Cl)c1ccc[nH]1,"inconclusive: 31.6 µM [inhibitor, single point]",
CC1CCC(C(C)C)C(OC(=O)C[n+]2cccc(C(N)=O)c2)C1 (stereo not given),"inconclusive: 2.82 µM [inhibitor, partial curve]",
O=c1c2ccccc2c(/C=N/n2cnnc2)c(O)n1-c1ccccc1,active: 89.1 µM,
COc1ccc(NC(=O)N2CCCC2C(=O)Nc2ccc(C)cc2C)cc1 (stereo not given),inactive,
COc1cccc(OC)c1C(=O)NCCSC1CCCCC1,inactive,
COc1ccccc1C(=O)N/C(=C/c1cccc([N+](=O)[O-])c1)C(=O)Nc1cccc(C(=O)O)c1,active: 12.6 µM,
COc1cccc(C(c2nnnn2C(C)(C)C)N2CCN(C3CCCCC3)CC2)c1OC (stereo not given),inactive,
COc1ccc(N2C(=O)/C(=C/N(C)C)NC2=S)cc1,active: 17.8 µM,
COc1ccccc1NC(=O)NCc1cccn1Cc1ccccc1,inactive,
Cc1cc(C)c2[nH]c(=O)c(CN(CC3CCCO3)C(=S)NCc3ccco3)cc2c1 (stereo not given),inactive,
Cc1ccc2c(c1)N(C(=O)Nc1cccc(C)c1C)CCO2,"inconclusive: 11.2 µM [inhibitor, partial curve]",
CCCOc1ccc(-c2nc(=S)[nH][nH]2)cc1,"inconclusive: 3.55 µM [inhibitor, full curve, poor fit]",
OCC[C@H]1C[C@@H](O)[C@H](O)[C@]2(OCc3ccccc32)O1,inactive,
Cc1ccc(C2C(C#N)=C(N)SC(N)=C2C#N)cc1,"inconclusive: 79.4 µM [inhibitor, partial curve, poor fit]",
O=C(NCCN1CCCCC1)c1ccc2c(c1)OCCO2,inactive,

SMILES,Potency,"activity change, negative = inhibition"
O=C1c2ccccc2NC(c2cccc([N+](=O)[O-])c2)N1O (stereo not given),inactive,
Cc1ccc(-c2cc(N)n[nH]2)cc1,"inconclusive: 56.2 µM [inhibitor, partial curve]",
O=C(O)CC(C(=O)OCCOc1ccccc1)N1CCOCC1 (stereo not given),"inconclusive: 39.8 µM [inhibitor, single point]",
CC(C)[C@H](NC(=O)NCCC1=CCCCC1)C(=O)O,,inactive: 2.21% [at 11.4 µM]
COc1ccccc1NS(=O)(=O)c1cc(C(=O)NCc2cccnc2)ccc1C,"inconclusive: 20 µM [inhibitor, partial curve]",
COc1ccccc1CNC(=O)CCC1N=C2c3ccccc3N=C(SCc3ccc(C)cc3)N2C1=O (stereo not given),inactive,
COc1ccc(C(=O)/C=C2/c3ccccc3CC(C)(C)N2C)cc1,"inconclusive: 44.7 µM [inhibitor, partial curve]",
CCC(=O)NC(c1ccc(C)cc1)c1cc([N+](=O)[O-])c2cccnc2c1O (stereo not given),active: 12.6 µM and active: 22.4 µM,
O=C(CCC(=O)NCCO)NCCO,inactive,
COc1ccc(NC(=O)[C@H](NC(=O)[C@@H]2Cc3ccccc3CN2)c2ccccc2)cc1,inactive,
CSc1nnc(N2C(=O)C(O)=C(C(=O)c3ccco3)C2c2ccccc2)s1 (stereo not given),"inconclusive: 63.1 µM [inhibitor, partial curve, poor fit]",
Cc1cc(=O)[nH]c(NN=C2C3CC4CC(C3)CC2C4)n1,"inconclusive: 4.47 µM [inhibitor, full curve, poor fit]",
O=S(=O)(Nc1ccc(N2CCOCC2)cc1)c1cc(Cl)ccc1Cl,"inconclusive: 56.2 µM [inhibitor, partial curve, poor fit]",
CCCCN1C(=N)N([C@@H](CCC)CN2CCC[C@H]2CN2C(N)=NC[C@H]2CC(C)C)C[C@H]1Cc1ccccc1,"inconclusive: 89.1 µM [inhibitor, partial curve]",
Cc1ccc(-n2nc(C)c3c2OC(N)=C(C#N)C3c2ccncc2)cc1 (stereo not given),"inconclusive: 56.2 µM [inhibitor, partial curve]",
CSC1=NC(C)(C)C=C(/C=C/c2ccc(Cl)cc2Cl)N1,"inconclusive: 56.2 µM [inhibitor, partial curve]",
O=C(CCCCCn1c(=O)[nH]c2ccccc2c1=O)NCc1ccccc1,inactive,
COc1ccc(N2CCN(c3oc(COc4ccccc4)nc3C#N)CC2)cc1,"inconclusive: 3.16 µM [inhibitor, single point]",
COc1cccc(N2CCN(c3ncnc4onc(-c5ccc(F)cc5)c34)CC2)c1,inactive,
CCOC(=O)c1cc(S(=O)(=O)N2CCN(c3ccc(C)cc3C)CC2)[nH]n1,"inconclusive: 56.2 µM [inhibitor, partial curve]",
COc1cccc(-c2noc(CCC(=O)NC3CCCCC3)n2)c1,inactive,
CC(=N[C@@H]1CCCC[C@H]1N=C(C)c1ccccc1O)c1ccccc1O,"inconclusive: 1.58 µM [inhibitor, partial curve, poor fit]",
Cc1ccccc1OCC(=O)N(Cc1ccc(N(C)C)cc1)C1CCS(=O)(=O)C1 (stereo not given),"inconclusive: 50.1 µM [inhibitor, partial curve]",
Cc1ccc(N(C(C)C(=O)Nc2cccc(N(C)S(C)(=O)=O)c2)S(C)(=O)=O)cc1 (stereo not given),inactive,

SMILES,Potency,"activity change, negative = inhibition"
O=C1NC(=S)N(c2cccc(Cl)c2)C12CCCCC2,inactive,
Cc1[nH]c2ccccc2c1SCCN,"inconclusive: 63.1 µM [inhibitor, partial curve, poor fit]",
CCN(c1ccccc1)S(=O)(=O)c1ccc(C(=O)N(CCCN(C)C)c2nc3cc4c(cc3s2)OCO4)cc1,active: 39.8 µM,
Oc1ccc(Br)cc1-c1cc(-c2ccco2)[nH]n1,"inconclusive: 79.4 µM [inhibitor, partial curve]",
O=C(CSc1cn(CC(=O)N2CCOCC2)c2ccccc12)Nc1ccccc1,inactive,
NNC(=O)c1ccc(CSc2cccc3cccnc23)cc1,inactive,
CC(=O)NCCC(=O)N(Cc1ccccc1)c1nc2c(C)cccc2s1,"inconclusive: 89.1 µM [inhibitor, single point]",
CCO[C@H]1OC(C(=O)N2CCN(Cc3ccc4c(c3)OCO4)CC2)=C[C@@H](c2csc3ccccc23)[C@@H]1CCCO,"inconclusive: 31.6 µM [inhibitor, partial curve]",
CSc1ccc(S(=O)(=O)NCC(=O)OCC(=O)N2CCCC2=O)cc1[N+](=O)[O-],inactive,
O=C(c1ccc(F)cc1)N1CCN(c2ccc([N+](=O)[O-])cc2-n2cccc2)CC1,"inconclusive: 25.1 µM [inhibitor, full curve]",
Cc1ccc(-c2nn(-c3cccc(F)c3)cc2CNCCc2ccncc2)o1,"inconclusive: 56.2 µM [inhibitor, partial curve]",
Cc1ccc(C(=O)c2cc([N+](=O)[O-])ccc2N2CCCCC2)cc1,"inconclusive: 56.2 µM [inhibitor, partial curve]",
Cc1cccc(NC(c2ccc(O)cc2)c2ccc3ccc(C)nc3c2O)n1 (stereo not given),active: 44.7 µM,
Cc1ccc2c(c1)c1c3n2CCN(C(=O)CCl)C3CCC1 (stereo not given),"inconclusive: 63.1 µM [inhibitor, partial curve]",
CC1=C(C(=O)OCc2ccccc2)C(c2ccccc2-c2ccccc2)NC(=O)N1CCCCCC(=O)O (stereo not given),"inconclusive: 70.8 µM [inhibitor, single point]",
O=C(c1ccc2c(=O)n(Cc3ccco3)c(=S)[nH]c2c1)N1CCN(Cc2ccc3c(c2)OCO3)CC1,"inconclusive: 70.8 µM [inhibitor, partial curve, poor fit]",
CC12CN3CC(C)(CN(C1)C3c1ccc3ccccc3c1O)C2=O (stereo not given),"inconclusive: 89.1 µM [inhibitor, single point]",
COc1ccccc1OCC(=O)Nc1ccccc1C(=O)NCc1ccco1,inactive,
O=C(Cc1cc(=O)oc2cc(O)ccc12)NC(Cc1ccc(Cl)cc1)C(=O)O (stereo not given),"inconclusive: 15.8 µM [inhibitor, full curve]",
COc1ccc(C2=NN(CN3C(=O)C(=O)c4ccccc43)C(c3cccc([N+](=O)[O-])c3)C2)cc1 (stereo not given),"inconclusive: 8.91 µM [inhibitor, full curve, poor fit]",
CC1(C)CC(=O)CC(C)(C)N1OC(=O)c1ccco1,"inconclusive: 79.4 µM [inhibitor, single point]",
O=C1CSC(=S)N1N=Cc1ccc(Cl)cc1Cl,"inconclusive: 79.4 µM [inhibitor, partial curve]",

# Source: PubChem BioAssay AID504339 (National Center for Advancing Translational Sciences (NCATS), 2011)
